# Experimental data taken from PubChem BioAssay AID1240 (Sanford-Burnham Center for Chemical Genomics, 2008).
# Screen size: about 50,000 compounds; about 800 (1.6%) showed an effect of 50% or more. Some of the results follow.
# Biological target: Bcl-2-like protein 10 (Homo sapiens) (UniProt Q9HD36)
# Assay: TR3 peptide-Bcl-B binding displacers, biochemical primary FP assay, phenotype converters (AID 1240);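 note: 0% = Bcl-B with tracer peptide and DMSO and 100% = tracer peptide lacking Bcl-B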
# Settings: GST-Bcl-B / FITC-TR3 peptide fluorescence polarization; stronger effect = higher value; compound at 3.75 mg/L
# Chain of UniProt Q9HD36 (Q9HD36 whole entry, looked up): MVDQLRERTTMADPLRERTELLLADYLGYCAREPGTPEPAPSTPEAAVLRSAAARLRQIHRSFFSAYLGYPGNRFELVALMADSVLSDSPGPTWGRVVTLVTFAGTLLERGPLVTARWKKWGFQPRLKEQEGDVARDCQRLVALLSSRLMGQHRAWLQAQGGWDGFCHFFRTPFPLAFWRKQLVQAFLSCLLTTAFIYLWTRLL
row,SMILES,displacement
1,CC(C)C1C(C#N)=C(N)Oc2n[nH]c(-c3ccccc3)c21 (centres undefined),-9.1%
2,Cc1cc(C)c(NC(=O)C2C3CCC4C(CCC32)C4(Cl)Cl)c(C)c1 (centres undefined),4.3%
3,CN(C)c1cccc(C(=O)NCC2CCCO2)c1 (centres undefined),11.8%
4,Cc1ccc(NCC(=O)N=Nc2c(O)[nH]c(=O)[nH]c2=O)cc1,12.7%
5,CC(C)(C)c1cc(Br)ccc1OCC(=O)Nc1ccccc1[N+](=O)[O-],5.9%
6,CC(NS(=O)(=O)c1ccc2c(c1)OCCO2)C(=O)O (centres undefined),12.3%
7,O=C(O)CCC(=O)N1N=C(c2ccc(Br)cc2)CC1c1cccs1 (centres undefined),14.4%
8,O=C(Nc1cc(F)c(F)cc1Cl)OCc1cccc([N+](=O)[O-])c1,-16.2%
9,C=CSC1=C(C#N)C(c2cccc3ccccc23)CC(=O)N1 (centres undefined),-0.6%
10,CCN1CCn2c3c(c4cc(C)ccc42)CCCC31 (centres undefined),2.3%
11,COc1cccc(C(=O)Nc2cc(OC)ccc2OC)c1,3.4%
12,COc1ccc(C2CC3CC(c4ccccc4)N2O3)cc1 (centres undefined),2.6%
13,NC(=O)OC(c1ccccc1[N+](=O)[O-])P(=O)(c1ccccc1)c1ccccc1 (centres undefined),-2.1%
14,CC(=O)OCc1c(OC(C)=O)ccc2c([N+](=O)[O-])c(C)n(-c3ccc(C)cc3)c12,-6.6%
15,Cc1ccc(CNC(=O)c2ccc(Cl)c([N+](=O)[O-])c2)cc1,6.1%
16,CC(=O)C1=C(O)C(=O)N(CCN2CCNCC2)C1c1cccc(F)c1 (centres undefined),-17.2%
17,O=C1NC(=S)N(c2cccc(Br)c2)C(=O)/C1=C/c1ccc(Cl)cc1,16.9%
18,CSc1ccc(-c2ncnn2-c2cccc(Cl)c2)cc1,-4.7%
19,Cc1ccc(-c2csc(Nc3cccc(O)c3)n2)c(C)c1,1.9%
20,Cn1c(=O)n(Cc2ccccc2Cl)c2ccccc21,13.9%
21,Nc1nc(-c2ccccc2)cc(N2CCCC2)n1,15.1%
22,O=C1C2ON(c3ccccc3)C(c3ccc([N+](=O)[O-])cc3)C2C(=O)N1Cc1ccccc1 (centres undefined),8.5%

row,SMILES,displacement
1,COc1ccc(OC)c(/C=N/Nc2nc(C)c(C)s2)c1,-8.5%
2,CCCOC(=O)c1ccc(N=Cc2ccc([N+](=O)[O-])cc2)cc1,8.2%
3,COC(=O)C1=NNC2C(=O)N(c3cccc(C)c3C)C(=O)C12 (centres undefined),-5.7%
4,CCCc1cc(C(=O)OC)c(NC(=O)c2ccc(OCC(C)C)cc2)s1,-4.5%
5,CCc1ccc2oc(-c3cccc(NC(=O)c4ccc5c(c4)OCCO5)c3)nc2c1,0.9%
6,COc1cccc(C=Nc2cc(Cl)cc(Cl)c2)c1O,-9%
7,O=C(/C=C/c1cc2c(cc1Br)OCO2)c1cccc([N+](=O)[O-])c1,9.2%
8,CC(NS(=O)(=O)c1cc(Cl)ccc1Cl)c1ccccc1 (centres undefined),-2.5%
9,O=C(O)C1C2CCC(C2)C1C(=O)Nc1nc(-c2ccc(Cl)c(Cl)c2)cs1 (centres undefined),-11%
10,COC(=O)c1ccc(C(=O)OC)c(NC(=O)C(C(C)C)N2C(=O)c3ccccc3C2=O)c1 (centres undefined),-4.5%
11,O=C(O)CCC(=O)N1N=C(c2ccc(Br)cc2)CC1c1ccc(Br)cc1 (centres undefined),-5.3%
12,COc1ccc(CN2CCN(C3CCCCC3)CC2)c(OC)c1,-11.9%
13,O=c1/c(=C/c2ccc(Sc3ccccc3)o2)sc2nc3ccccc3n12,48.5%
14,CC(=O)Nc1ccc(NC(=S)Nc2ccccc2)cc1,-14.9%
15,O=C(Nc1cccc2ccccc12)c1ccc(Br)o1,0%
16,COc1c(Cl)cc(C(=O)Nc2cc(Cl)cc(Cl)c2)cc1Cl,2.3%
17,CC1=NN(C(=O)c2ccc(Br)cc2)C(O)(c2ccccc2)C1 (centres undefined),9.2%
18,C=CCn1c(C(O)c2ccccc2)nc2ccccc21 (centres undefined),-0.3%
19,O=C(CC1S/C(=N\N=C2/CCCc3ccccc32)NC1=O)Nc1ccccc1F (centres undefined),-5.1%
20,COc1ccc(C2(CNS(=O)(=O)c3ccccc3)CCCC2)cc1OC,-9.7%
21,COc1ccc(Cl)cc1S(=O)(=O)N1CCN(C)CC1,-10.1%
22,Cc1ccc(CNC(=O)C(=O)Nc2ccc(C)c(C)c2)cc1,2.8%

row,SMILES,displacement
1,CC(C)COc1ccc(C(=O)Nc2ccc(NC(=O)c3ccco3)c(Cl)c2)cc1,-5.1%
2,CCCCC(=O)Nc1ncc2c(n1)CC(C)(C)CC2=O,1%
3,COc1ccccc1CN1CCN(Cc2c[nH]c3ccccc23)CC1,-4.6%
4,CCOC(=O)C1CCN(C(=O)COc2ccc(C)cc2C)CC1,4.2%
5,O=C1NC(=S)N/C1=C\c1ccc(Oc2ccc([N+](=O)[O-])cn2)cc1,101%
6,CC(C)C(=O)N1c2ccccc2C(N(C(=O)c2ccc(F)cc2)c2ccccc2)CC1C (centres undefined),16.4%
7,CCOC(=O)c1c(NC(=O)C(C)Oc2ccc(Cl)cc2Cl)sc(C(N)=O)c1C (centres undefined),-1.8%
8,CN(C(=O)c1ccc(Br)cc1)c1ccccc1,-8%
9,Cc1ccc(-c2csc(NC(=O)CC(C)C)n2)c(C)c1,-6.6%
10,COc1cc(NC(=O)c2cc(C(F)(F)F)cc(C(F)(F)F)c2)c(OC)cc1NC(C)=O,-0.1%
11,CCOc1ccc(-c2nnc(-c3ccc4c(c3)OCO4)o2)cc1,-2.3%
12,O=S(=O)(Nc1ccc(Br)cn1)c1ccccc1,9.5%
13,Cc1cc(C)c(C(=O)c2ccc(C(N)=O)cc2)c(C)c1,6.5%
14,O=C(Nc1nc(-c2ccc(F)cc2)cs1)c1ccc([N+](=O)[O-])cc1Cl,-2.8%
15,Cc1ccc(-c2nc3cc(Cl)ccc3o2)cc1NC(=O)c1cccs1,2.3%
16,Cc1ccc(/C=C(/C#N)c2nc3ccc(C)cc3[nH]2)cc1,4.5%
17,CCOC(=O)N(Cc1ccccc1)C(C(=O)O)C(C(=O)O)N(Cc1ccccc1)C(=O)OCC (centres undefined),6.3%
18,Cc1ccc(N(CC(=O)Nc2ccccc2F)S(=O)(=O)c2ccc(F)cc2)cc1,-34%
19,COc1ccc(NS(=O)(=O)c2ccc(C)cc2)cc1[N+](=O)[O-],-1.5%
20,O=C(COc1ccc2ccccc2c1)NCCCN1CCOCC1,0.9%
21,CCc1ccc(/C=C2\C(=O)N(c3ccc(Cl)c(C(=O)O)c3)N=C2C)cc1,3.1%
22,COCCNC(=O)c1nn2c(C(F)(F)F)cc(-c3ccc(OC)c(OC)c3)nc2c1Cl,155%

row,SMILES,displacement
1,O=C(O)COc1ccccc1/C=C1/SC(=S)N(NC(=O)c2ccc(Cl)cc2)C1=O,10.7%
2,CCOC(=O)c1c(NC(=O)c2ccc(Cl)cc2Cl)sc(C)c1C,6.1%
3,COc1ccc(C2=C/C(=C\c3ccc(OC(C)=O)cc3)C(=O)O2)cc1,110%
4,O=C(NC(c1ccccc1)c1ccccc1)C(Sc1ccccc1)c1ccccc1 (centres undefined),18.5%
5,COc1ccc(N2C(=O)NC(=O)/C(=C/c3cc(Br)c(OC)c(OC)c3)C2=O)cc1,11.6%
6,C/C(=C1/SC(N2CCCC2)=NC1=O)c1ccc(Cl)cc1,-11.2%
7,COc1cc(NC(=O)c2cc3n(n2)C(C(F)(F)F)CC(c2ccc(Br)cc2)N3)cc([N+](=O)[O-])c1 (centres undefined),3.8%
8,Cc1ccc(N2C(=O)C3C(C2=O)C2(C)C(=O)C3(C)C(c3ccccc3)=C2c2ccccc2)cc1Cl (centres undefined),-1.1%
9,CCOC1CC(c2ccccc2)=NN1c1ccccc1 (centres undefined),-14.3%
10,COc1ccc(OC)c(N=Cc2c(O)n(-c3cc(OC)ccc3OC)c(=O)[nH]c2=O)c1,2.9%
11,O=C(NC(C(=O)c1ccccc1)N1CCOCC1)c1ccco1 (centres undefined),16.5%
12,N/C(=N\OC(=O)COc1ccccc1)c1ccc(Br)cc1,13.5%
13,CSC(=O)NC12CC3CC(CC(C)(C3)C1)C2,-6.3%
14,CCOC(=O)C1=C(O)/C(=C\c2ccc(Cl)cc2Cl)N=C1C,12.1%
15,COc1cc(/C=C2/C(=O)NC(=O)N(c3ccc(C(C)C)cc3)C2=O)ccc1O,5.5%
16,CC(C)(C)NC(=O)c1cc(N)cc(N)c1,39.1%
17,Cc1cc([N+](=O)[O-])ccc1NC(=O)CCCOc1ccc(Cl)cc1Cl,-13.3%
18,COc1ccccc1OCCCOc1ccc(Cl)c(C)c1,16.9%
19,COc1cc(/C=C2\SC(=S)N(Cc3ccccc3)C2=O)ccc1OC(=O)c1ccc(Cl)cc1,-0.6%
20,Nc1ccc(C(=O)Nc2cccc(O)c2)cc1,11.4%
21,O=C(Oc1cccc2ccccc12)c1cccc([N+](=O)[O-])c1,6.1%
22,COc1cc(/C=C2\C(=O)NC(=O)N(c3ccc(C)c(C)c3)C2=O)cc(Cl)c1O,2.3%

row,SMILES,displacement
1,CCn1c2ccccc2c2cc(NC(=O)c3ccc(OC)cc3OC)ccc21,-3.5%
2,O=C1N/C(=N\N=C\c2ccc(O)cc2)SC1c1ccccc1 (centres undefined),-6.8%
3,CC(NC(=O)CN(c1ccccc1)S(=O)(=O)c1ccccc1[N+](=O)[O-])c1ccccc1 (centres undefined),14.2%
4,CCOC(=O)c1c(NC(=O)c2ccncc2)sc(C(C)=O)c1C,-6.5%
5,Cc1ccc([N+](=O)[O-])cc1Cc1ccc(Cl)cc1,8.5%
6,O=C(NCc1cccs1)c1sc2cc(F)ccc2c1Cl,-3.8%
7,COc1ccc(C(=O)/C=C\Nc2ccc([N+](=O)[O-])cc2)cc1,-57.2%
8,O=C1C(=C/C=C/c2ccccc2)C(=O)c2ccccc21,75%
9,CCOC(=O)c1c(NC(NC(=O)c2ccco2)C(=O)c2ccccc2)sc2c1CCCC2 (centres undefined),4.5%
10,O=C1C2CC=C(Cl)CC2C(=O)N1CNc1ccccc1-c1ccccc1 (centres undefined),2.3%
11,O=C1CC(NCCc2ccccc2)C(=O)N1c1ccc(F)cc1 (centres undefined),5.6%
12,CC1=C(C#N)c2nc(N)c(C#N)c(C)c2/C1=C\c1ccc(-c2ccc(Cl)cc2)o1,-3.3%
13,O=C(CN1CCOCC1)Nc1cc(C(F)(F)F)cc(NC(=O)CN2CCOCC2)c1Cl,-12.1%
14,COc1ccc(C(C2=C(O)CC(C)(C)CC2=O)C2C(=O)CC(C)(C)CC2=O)cc1OC (centres undefined),18.9%
15,CC(=O)NC1=NC(=O)/C(=C\c2ccc(C(C)C)cc2)S1,-10.2%
16,Cc1ccc(NC(=O)CSC(N)=O)cc1C,-40.7%
17,C=CCc1cccc2cc(C(=O)NCc3ccco3)c(=O)oc12,1.9%
18,Cc1c(Cl)cccc1NC(=O)COc1ccc(Cl)cc1,15.9%
19,Cc1ccc(NC(=O)Cc2nc3ccccc3n2CCC#N)cc1,-1.8%
20,O=C1C(Nc2ccccc2)=CC(c2cccc([N+](=O)[O-])c2)N1c1ccccc1 (centres undefined),1.6%
21,O=C(OCc1nc2c(ccc3ccccc32)[nH]1)C1CCCCC1,-1.2%
